# Out of some 350,000 compounds screened, about 9,900 (2.8%) were called active. The shares of active, inactive and inconclusive entries below differ from those in the screen. Calls follow the shape of the dose curve; as a rule, active = well fitted activation curve with a large enough effect; inconclusive = small, poorly fitted or top-dose-only effect; inactive = no such curve, though single readings can be large or run the other way. No potency is given beside an inconclusive call; the fits are too rough.
# Test: A quantitative high throughput screen for small molecules that induce DNA re-replication in MCF 10a normal breast cells. Also: nearly all actives have a fitted effect of over 50% in size.
# Details: MCF 10A DNA re-replication, Hoechst nuclear intensity, 48 h; series mostly up to 46.1 µM
# Potency is read from the fitted curve at half-maximal effect; tags tell the direction and shape of the fitted curve.
row,SMILES,Potency
1,Cc1cc2ccccn2c1C(=O)c1cccc(F)c1,"inconclusive [activator, single point]"
2,CCOC(=O)c1cc2c(ccn2C)n1CC(=O)N1CCN(c2ccccc2)CC1,"inconclusive [activator, full curve, poor fit]"
3,Cc1nn(Cc2ccc(C(=O)Nc3nc4c(C)cccc4s3)o2)c(C)c1Br,"inconclusive [activator, single point]"
4,COCCn1ccc(O)c(Cc2ccc(Cl)cc2)c1=O,inactive
5,CCC1CCc2c(sc3nc(SCC(=O)NCc4ccco4)n(-c4ccccc4)c(=O)c23)C1 (stereo not given),"inconclusive [activator, single point]"
6,O=C(Nc1cccc(NC(=O)N2CCN(c3ccccc3)CC2)c1)N1CCN(c2ccccc2)CC1,"inconclusive [activator, partial curve, poor fit]"
7,Cc1c(C(=O)N2CCC(Cc3ccccc3)CC2)cccc1[N+](=O)[O-],"inconclusive [activator, full curve, poor fit]"
8,COc1ccc2ccc(O)c(CN(C)CC(=O)Nc3ccccc3C(F)(F)F)c2c1,"inconclusive [activator, single point]"
9,CCOc1ccc(-c2cc(C(=O)NCCCn3ccnc3)c3cc(Br)ccc3n2)cc1,"inconclusive [activator, single point]"
10,O=C(NCc1ccc(F)cc1)c1cccnc1,inactive
11,Cc1ccc(/C=C/c2nc3ccccc3c(=O)[nH]2)cc1,"inconclusive [activator, full curve]"
12,Cc1ccc2oc(C(=O)N3CCN(Cc4nccn4C)CC3)c(C)c2c1,"inconclusive [activator, partial curve, poor fit]"
13,CCOCCCNC(=O)/C(C#N)=C/c1ccc(-c2ccc(S(=O)(=O)N3CCOCC3)cc2)o1,"inconclusive [activator, single point]"
14,COc1ccc(-c2cnnc(N/N=C/c3ccc(C)o3)n2)cc1,"inconclusive [activator, single point]"
15,COc1ccc(C(=O)NCC(=O)OCc2c(Cl)cccc2Cl)cc1OC,"inconclusive [activator, single point]"
16,CNC(=O)NC(=O)C(C)OC(=O)c1c2c(nc3ccccc13)/C(=C/c1cccs1)CC2 (stereo not given),"inconclusive [activator, full curve, poor fit]"
17,Nc1nonc1-n1nnc(C(=O)N/N=C/c2cccc(F)c2)c1CN1CCCCCC1,"inconclusive [activator, single point]"
18,CCCCn1c(SCc2nc(N)nc(Nc3ccccc3C)n2)nc2ccccc2c1=O,"inconclusive [activator, single point]"
19,COc1cc(C(CC(=O)N2CCCC2)c2c(OC)cc(OC)c3c(-c4ccccc4)cc(=O)oc23)cc(OC)c1OC (stereo not given),"inconclusive [activator, single point]"
20,Cc1ccc(CNc2oc(-c3ccco3)nc2S(=O)(=O)c2ccccc2)cc1,"inconclusive [activator, single point]"
21,COc1cc2ccccc2cc1C(=O)Nc1nnc(-c2ccncc2)o1,inactive
22,CN1CCN(S(=O)(=O)c2ccc(NC(=O)COc3ccccc3Cl)cc2)CC1,"inconclusive [activator, partial curve, poor fit]"

row,SMILES,Potency
1,O=C(NCc1cccnc1)c1ccc(COc2ccccc2Cl)cc1,inactive
2,Clc1ccc(-c2cc3ccccc3nc2N2CCOCC2)cc1,"inconclusive [activator, single point]"
3,COc1ccc(C(CNC(=O)COc2ccc(C)c(C)c2)N2CCCCC2)cc1 (stereo not given),"inconclusive [activator, partial curve, poor fit]"
4,O=C(COc1ccc(-c2ccccc2)cc1)NNC(=O)Nc1ccc(F)cc1F,inactive
5,C=CCn1c(SCC#N)nc2c(c1=O)C(C)(C)Cc1ccccc1-2,"inconclusive [activator, single point]"
6,N/C(=N\c1nc(CSc2ccccn2)cc(=O)[nH]1)Nc1ccc(Cl)cc1Cl,"inconclusive [activator, partial curve]"
7,O=C(CSc1nc(-c2cccs2)cc(C(F)(F)F)n1)Nc1cc(OCC(F)(F)F)cc([N+](=O)[O-])c1,"inconclusive [activator, single point]"
8,CCc1cc(=O)n2[nH]c(-c3ccccc3)c(-c3ccccc3)c2n1,"inconclusive [activator, full curve]"
9,CCc1sc(C(=O)Nc2cc(S(=O)(=O)N3CCOCC3)ccc2OC)cc1C,"inconclusive [activator, single point]"
10,O=C(Nc1ccc(Cl)cc1)Nc1cc(S(=O)(=O)N2CCOCC2)ccc1N1CCCC1,"inconclusive [activator, partial curve]"
11,N#Cc1ccc(N2Cc3ccccc3C2=NC(=O)c2cccs2)cc1,inactive
12,CCOc1ccc(C(=O)/C=C/c2cc(OC)c(OC)c(OC)c2)cc1,"inconclusive [activator, single point]"
13,CCOc1ccc(-n2c(-c3ccc(Cl)cc3)c[n+]3c2SCC3)cc1,"inconclusive [activator, partial curve, poor fit]"
14,CCCCn1c(SCC(=O)Nc2nnc(C(C)C)s2)nc2c1c(=O)n(C)c(=O)n2C,"inconclusive [activator, partial curve]"
15,COc1ccc(C2CC(c3cccs3)=NN2c2nc(-c3ccccc3)cs2)cc1OC (stereo not given),"inconclusive [activator, partial curve, poor fit]"
16,O=C(CSc1nnc(-c2ccccc2Br)o1)N1CCOCC1,inactive
17,C=COCCNC(=O)Nc1ccc(Cl)c(Cl)c1,"inconclusive [activator, single point]"
18,Cn1cc(C(c2ccccc2OCC(=O)O)c2cn(C)c3ccccc23)c2ccccc21,"inconclusive [activator, single point]"
19,O=C(c1ccc(COc2ccc(Cl)cc2)o1)N1N=C(C(F)F)CC1(O)C(F)F (stereo not given),"inconclusive [activator, single point]"
20,CCOC(=O)Nc1ccc2c(CN3CCN(S(=O)(=O)c4ccccc4)CC3)cc(=O)oc2c1,"inconclusive [activator, full curve, poor fit]"
21,CCn1nc(C)cc1C(=O)Sc1cccc(Br)c1,"inconclusive [activator, single point]"
22,CCc1nnc(NC(=O)CN2CCN(Cc3ccc(F)cc3)CC2)s1,"inconclusive [activator, single point]"

row,SMILES,Potency
1,O=C(Nc1cc(Sc2nc3ccccc3s2)cc([N+](=O)[O-])c1)c1cccc(F)c1F,inactive
2,COc1cccc(-c2ccc(NC(=O)C3CCCN(Cc4ccco4)C3)cc2)c1 (stereo not given),"inconclusive [activator, single point]"
3,C=CCNC(=O)c1ccccc1NC(=O)Nc1ccccc1,"inconclusive [activator, partial curve, poor fit]"
4,Brc1ccc(CN2C3=NCCCN3c3ccccc32)cc1,inactive
5,CC(=O)Nc1sc(C)c(C)c1C(=O)OCC(=O)NCc1ccc(Cl)cc1,inactive
6,COc1ccc2c(c1)C(C)=CC(C)(C)N2S(=O)(=O)c1ccc(C)cc1,"inconclusive [activator, single point]"
7,CCN(C(=O)COC(=O)C12CC3CC(CC(NC(C)=O)(C3)C1)C2)C1CCCCC1,inactive
8,COc1cc(-c2cc(-c3ccc(N)cc3)[nH]c(=O)c2C#N)cc(OC)c1OC,inactive
9,C=CCNc1oc(-c2ccc(-c3ccccc3)cc2)nc1C#N,"inconclusive [activator, single point]"
10,CCOc1ncccc1C(=O)NNC(=O)c1ccc(NS(=O)(=O)c2cccs2)cc1,inactive
11,N#C/C=C1\Sc2ccccc2C(=O)N1CC(=O)N1CCN(S(=O)(=O)c2ccccc2)CC1,"inconclusive [activator, single point]"
12,CC(=O)Cn1cnc2c(sc3nc(C)cc(C)c32)c1=O,inactive
13,COc1ccc(S(=O)(=O)N2CCCCC2)cc1NC(=O)COc1ccccc1,inactive
14,Cc1c(CCOC(=O)CC23CC4CC(CC(C)(C4)C2)C3)sc[n+]1CC(=O)c1ccccc1,"inconclusive [activator, single point]"
15,COC(=O)/C=C/C(=O)Nc1ccc(O)c(Cl)c1,"inconclusive [activator, single point]"
16,CCOc1ccc(N2C(=O)CC(NNc3nc4ccccc4s3)C2=O)cc1 (stereo not given),"inconclusive [activator, partial curve, poor fit]"
17,COc1ccc(Cc2nnc(NC(=O)Nc3ccccc3OC)s2)cc1,"inconclusive [activator, partial curve, poor fit]"
18,Cc1[nH]c2ccccc2c1C(=O)CN1CCN(C/C=C/c2ccccc2)CC1,"inconclusive [activator, single point]"
19,COc1ccc(/C=N/NC(=O)CCn2cnc(-c3ccccc3)c2-c2ccccc2)cc1,active: 1.64 µM
20,O=C(/C=C/c1cccc(Cl)c1)c1ccc([N+](=O)[O-])o1,active: 2.31 µM
21,CCCn1c(=O)c(C(=O)NNS(=O)(=O)c2ccc(C)cc2)c(O)c2ccccc21,"inconclusive [activator, single point]"
